This is an account of results in ChEMBL document CHEMBL5606460, “ASAP - DENV-2 NS2B-NS3 protease fluorescence single point” (2024).

One may read the inhibition as the relative decrease from the control value, in per cent.

Screen size: about 2,000 compounds; about 110 (5.5%) showed an effect of 50% or more. This is one part of the list.

The target in this test is Genome polyprotein (dengue virus type 2) (UniProt P29990).
The mark [1] stands for this setting: Thailand/16681/1984, Concentration 25.0 uM, Number of replicates 1.0.

On to `CS(=O)(=O)c1ccc(O)c(NC(=O)C2CCN(c3ccc(C=O)cc3)CC2)c1`, for which, under setting [1], the inhibition stood at 16%.

Take `O=C(NCC1(CO)CC1)[C@]1(c2ccc(F)cc2)CCCNC1`: the inhibition (Thailand/16681/1984, Concentration 49.5 uM, Number of replicates 2.0, Standard deviation 0.29342256611647827 %) is -0.431%; the inhibition (Thailand/16681/1984, Concentration 99.01 uM, Number of replicates 2.0, Standard deviation 0.5301375801593371 %) stood at 0.116%; the inhibition (Thailand/16681/1984, Concentration 198.0 uM, Number of replicates 2.0, Standard deviation 0.5056857277475296 %) was -0.092%.

Consider `CSCC[C@H](NC(=O)OC(C)(C)C)C(=O)N1CCC[C@H]1C(=O)N1CCNCC1`, for which the inhibition is -1.01% (Thailand/16681/1984, Concentration 49.5 uM, Number of replicates 2.0, Standard deviation 0.18656479510110988 %); -1.03% (Thailand/16681/1984, Concentration 99.01 uM, Number of replicates 2.0, Standard deviation 0.6673278690655411 %); -0.61% (Thailand/16681/1984, Concentration 198.0 uM, Number of replicates 2.0, Standard deviation 0.6237960118923063 %).

For `Cc1c(Br)cnc(NC(=O)C2CCN(c3ccc(C=O)cc3)CC2)c1[N+](=O)[O-]`, the inhibition under setting [1] was 13.3%.

Regarding `O=Cc1ccc(N2CCC(C(=O)N3CCN(c4cccnc4)CC3)CC2)cc1`, the inhibition under setting [1] came out at 11.7%.

As to `COc1cc(Cc2cccc(-c3nnn[nH]3)c2)nc(N2CCNCC2)n1`, the inhibition is -0.291% (Thailand/16681/1984, Concentration 49.5 uM, Number of replicates 2.0, Standard deviation 0.6269046159245001 %); 0.835% (Thailand/16681/1984, Concentration 99.01 uM, Number of replicates 2.0, Standard deviation 0.6940172344445191 %); 2.12% (Thailand/16681/1984, Concentration 198.0 uM, Number of replicates 2.0, Standard deviation 1.0254182414604671 %).

As to `Cc1cc(CO)c2cccc(C[C@H](NC(=O)Cc3cccc(CN)c3)C(=O)O)c2n1`, the inhibition came to 3.43% (Thailand/16681/1984, Concentration 49.95 uM, Number of replicates 2.0, Standard deviation 1.182306091825904 %) and 11.1% (Thailand/16681/1984, Concentration 99.9 uM, Number of replicates 2.0, Standard deviation 0.8526118635872534 %).

Regarding `CC(C)(CO)NC(=O)c1cc(Cl)cc(NC(=O)c2cccc(Cn3ccnc3)c2)c1`, the inhibition (Thailand/16681/1984, Concentration 49.5 uM, Number of replicates 2.0, Standard deviation 2.3942027115429654 %) is -1.59%; the inhibition (Thailand/16681/1984, Concentration 99.01 uM, Number of replicates 2.0, Standard deviation 0.22825569900481307 %) was -3.98%; the inhibition (Thailand/16681/1984, Concentration 198.0 uM, Number of replicates 2.0, Standard deviation 1.4712561186721034 %) is -3.84%.

On to `Cc1cc(CO)c2cccc(CC(=O)Nc3cc(O)[nH]n3)c2n1`, for which the inhibition runs as follows: (Thailand/16681/1984, Concentration 49.95 uM, Number of replicates 2.0, Standard deviation 0.30186854167697036 %) 9.85%; (Thailand/16681/1984, Concentration 99.9 uM, Number of replicates 2.0, Standard deviation 0.4943454438060974 %) 27.1%.

Take `Cc1cc(CO)c2cccc(Cc3ccccc3NC(=O)c3cc(C(F)F)nn3C)c2n1`: the inhibition by setting is: (Thailand/16681/1984, Concentration 49.95 uM, Number of replicates 2.0, Standard deviation 2.025151603382516 %) 0.062%; (Thailand/16681/1984, Concentration 99.9 uM, Number of replicates 2.0, Standard deviation 0.9360702100715556 %) 3.72%.

`Cc1cc(CO)c2cccc(Cc3ccccc3C(=O)Nc3cc(O)[nH]n3)c2n1`: the inhibition (Thailand/16681/1984, Concentration 49.95 uM, Number of replicates 2.0, Standard deviation 1.692425920917871 %) came out at 31.1% and the inhibition (Thailand/16681/1984, Concentration 99.9 uM, Number of replicates 2.0, Standard deviation 2.178235447788754 %) stood at 49.1%.

Take `Cc1cc(NCCN(C)C)c2ccccc2n1`: the inhibition (Thailand/16681/1984, Concentration 99.9 uM, Number of replicates 2.0, Standard deviation 3.6219696743832435 %) was -9.59%.

On to `O=Cc1ccc(N2CCC(C(=O)N3CCN(CCc4cccs4)CC3)CC2)cc1`, for which, under setting [1], the inhibition was 12.3%.

Regarding `O=Cc1ccc(N2CCC(C(=O)Nc3cccc(F)c3[N+](=O)[O-])CC2)cc1`, the inhibition under setting [1] amounted to 17.1%.

For the compound `Cc1cc(CO)c2cccc(Cc3ccccc3C(=O)Nc3ccc(C(=O)O)o3)c2n1`, the inhibition runs as follows: (Thailand/16681/1984, Concentration 49.95 uM, Number of replicates 2.0, Standard deviation 1.5990008562851066 %) 16.8%; (Thailand/16681/1984, Concentration 99.9 uM, Number of replicates 2.0, Standard deviation 2.1056511568076566 %) 34.4%.

Take `Cc1cc(CO)c2cccc(NC(=O)C3(C(N)=O)CC3)c2n1`: the inhibition was 9.75% (Thailand/16681/1984, Concentration 49.95 uM, Number of replicates 2.0, Standard deviation 2.1727408474420855 %) and 17% (Thailand/16681/1984, Concentration 99.9 uM, Number of replicates 2.0, Standard deviation 2.919282243144154 %).

Regarding `O=Cc1ccc(N2CCC(C(=O)N3CCN(c4ncc(C(F)(F)F)cc4Cl)CC3)CC2)cc1`, the inhibition under setting [1] is -1.15%.

For `Cc1cc(CO)c2cccc(Cc3cccc(C(=O)N(c4ncccn4)S(=O)(=O)c4ccc(N)cc4)c3)c2n1`, the inhibition runs as follows: (Thailand/16681/1984, Concentration 49.95 uM, Number of replicates 2.0, Standard deviation 1.2554851591331873 %) 27.5%; (Thailand/16681/1984, Concentration 99.9 uM, Number of replicates 2.0, Standard deviation 1.7606970720097574 %) 55.5%.

On to `Cn1nccc1NS(=O)(=O)c1ccc(Oc2ccccc2)cc1`, for which the inhibition (Thailand/16681/1984, Concentration 49.5 uM, Number of replicates 2.0, Standard deviation 3.5994263366391306 %) is -1.13%; the inhibition (Thailand/16681/1984, Concentration 99.01 uM, Number of replicates 2.0, Standard deviation 3.358089435968294 %) was -0.763%; the inhibition (Thailand/16681/1984, Concentration 198.0 uM, Number of replicates 2.0, Standard deviation 3.347260224711905 %) was 0.891%.

Take `O=Cc1ccc(N2CCC(C(=O)N3CCC(Oc4ccccc4C(F)(F)F)CC3)CC2)cc1`: the inhibition under setting [1] turned out to be 2.31%.

Regarding `O=Cc1ccc(N2CCC(C(=O)N3CCCN(CCCc4ccccc4)CC3)CC2)cc1`, under setting [1], the inhibition came out at 8.62%.

For `CC(C)(C)OC(=O)N[C@H](C(=O)Nc1ccc(CN)cc1)c1ccc(OCc2ccccc2)cc1`, the inhibition reads like this: (Thailand/16681/1984, Concentration 49.5 uM, Number of replicates 2.0, Standard deviation 0.7638001086987946 %) -1.42%; (Thailand/16681/1984, Concentration 99.01 uM, Number of replicates 2.0, Standard deviation 0.5692523211680847 %) 0.423%; (Thailand/16681/1984, Concentration 198.0 uM, Number of replicates 2.0, Standard deviation 0.3400589812244498 %) 5.26%.
